From ChEMBL document CHEMBL4888484, “Replenishing the malaria drug discovery pipeline: Screening and hit evaluation of the MMV Hit Generation Library 1 (HGL1) against asexual blood stage Plasmodium falciparum ,using a nano luciferase reporter read-out” (2022) come the findings set out here.

Out of some 150,000 compounds screened, about 540 (0.36%) showed an effect of 50% or more. The list shows a part of the results.

The assay concerns Plasmodium falciparum. Nature of the assay: Primary screen in NF54 nanoGlo assay, in single point, at 2uM, 72h; a lower Z score goes with more inhibition. It is filed as functional, Erythrocyte. The note with it: timepoint 72 hour.
Consider `COC(=O)c1cc2n(n1)CCN(Cc1ccc(OC)cc1)C2=O`, for which the “% Inhibition” value is reported as -6% and the Z score came to 1.19.

`COc1cc(F)cc2sc(NC(=O)C(C)(C)n3cc(Cl)cn3)nc12`: the “% Inhibition” value was found to be 4% and the Z score is -0.46.

Take `COc1ccc(NC(=O)N[C@H]2CC(=O)N(c3ccc4c(c3)OCCO4)C2)c(OC)c1`: the “% Inhibition” value was found to be 1% and the Z score is -0.17.

`Cc1occc1CN(C)C(=O)Nc1cnsn1`: the “% Inhibition” value came out at 12% and the Z score is -1.16.

As to `COCCc1noc([C@@H]2CCCN2Cc2nnc(C)s2)n1`, the “% Inhibition” value is given as -2% and the Z score worked out at 0.26.

On to `O=C1NCCN1CCn1cc([C@H]2CCOC2)nn1`, for which the “% Inhibition” value is given as -7% and the Z score worked out at 1.18.

Turning to `CN(C)C(=O)c1cccc(NC(=O)c2cc(F)c(F)c(F)c2)n1`, the “% Inhibition” value is recorded as -2% and the Z score was 0.38.

On to `COc1ccnc(C(=O)NC(c2ccccn2)[C@H]2C[C@H](O)C2)c1` (some centres undefined), for which the “% Inhibition” value is listed as -6% and the Z score worked out at 0.7.

Turning to `Cc1nc(-c2cccc(CNc3nnc(C)c(C)n3)c2)cs1`, the “% Inhibition” value is given as -5% and the Z score came out at 0.93.

Consider `CCOc1cccc(CCNC(=O)c2cn[nH]c2C)n1`, for which the “% Inhibition” value came to 5% and the Z score is on record as -0.74.

As for `COc1cc(C(=O)N[C@H]2CC[C@@H](C(=O)N3CCOCC3)C2)ccn1`, the “% Inhibition” value was -1% and the Z score is 0.16.

Regarding `O=C(NCc1ccc(F)cc1)N1CC[C@@H]2COC(=O)N(Cc3ccccc3)[C@@H]2C1`, the “% Inhibition” value is -14% and the Z score is listed as 1.82.

Consider `Cc1nc(N2CCN(Cc3ccoc3)[C@@H](CCO)C2)c2cnn(C)c2n1`, for which the “% Inhibition” value is 5% and the Z score is on record as -0.88.

In the case of `CC(NC(=O)C1CC2CCC1O2)c1ccon1` (centres undefined), the “% Inhibition” value is 2% and the Z score is recorded as -0.36.

Consider `COc1ccc(OC)c(-c2ccc(C(=O)N3C[C@@H](C)O[C@@H](C)C3)c(N3CCN(C)CC3)n2)c1`, for which the “% Inhibition” value came out at 1% and the Z score was -0.19.

With `COC(C)(C)c1noc(-c2cnn(CC(C)C)c2C(F)F)n1`, the “% Inhibition” value is -12% and the Z score is on record as 1.36.

For `COc1cc2cc(c1)C(=O)NCCCC(=O)N[C@H]1CN(C(=O)c3noc4c3CCCC4)CC[C@@H]1OCc1cccc(c1)O2`, the “% Inhibition” value is given as -6% and the Z score is 1.16.

Consider `Cc1nc(CN2CCC(N3C[C@H](COc4ccc(F)cc4)OCC3=O)CC2)no1`, for which the “% Inhibition” value came to 8% and the Z score is -0.77.

As to `Cc1ccoc1C(=O)NCCCNC(=O)NCc1nccs1`, the “% Inhibition” value is recorded as -6% and the Z score came to 0.95.

Regarding `Cc1cc(N2CCN(C(c3ccccc3)c3ccccc3)CC2)n2nc(C(F)(F)F)nc2n1`, the “% Inhibition” value is -7% and the Z score is listed as 0.82.

For `Cc1cccnc1NCCNc1nc2c(s1)c(C)nn2C`, the “% Inhibition” value was -6% and the Z score was 0.99.

Take `CC(C)(C)c1nnc(CN2CCC[C@@H]2CN2CCCC2)o1`: the “% Inhibition” value is on record as -16% and the Z score came to 3.04.

Take `CCNC(=O)N1CCC[C@H](n2c(=O)n(C)c3cncnc32)C1`: the “% Inhibition” value is reported as -8% and the Z score was found to be 0.78.

As to `CCOC[C@H]1CCN(C(=O)c2cccc3c2C(=O)OC3(C)C)C1`, the “% Inhibition” value is -9% and the Z score amounted to 1.48.

With `COC(=O)c1cc(C(=O)OC)c(C(=O)OC)c(-c2c(-c3ccccc3)c(C)c3ccccn23)c1C(=O)OC`, the “% Inhibition” value was -12% and the Z score is 2.22.

With `Cc1cccc(N(C)C(=O)c2c(C)oc3ncn(C)c(=O)c23)c1`, the “% Inhibition” value is given as -3% and the Z score is given as 0.43.

Regarding `CC(C)OCc1ccccc1NC(=O)[C@H](O)c1ccccc1`, the “% Inhibition” value is listed as -14% and the Z score turned out to be 1.22.

Take `COC[C@H](C)N(C)C(=O)c1ccc(-c2ccc3c(c2)OCCO3)s1`: the “% Inhibition” value was -28% and the Z score stood at 5.25.

Consider `Cc1noc(C)c1CC(=O)N1CC(F)(F)C[C@H]1Cn1cc(C(=O)N2CCOCC2)nn1`, for which the “% Inhibition” value came to 27% and the Z score is listed as -3.1.

Consider `CC(C)Cc1ccc([C@@H](N)c2cccs2)cc1`, for which the “% Inhibition” value was -7% and the Z score was determined as 0.91.

`O=C1NC(=O)C2(CCN(C(=O)C3CC4CCC3C4)CC2)N1` (centres undefined): the “% Inhibition” value was 35% and the Z score is recorded as -0.89.

Turning to `O=C(NCc1cccnc1N1CCN(c2ccccn2)CC1)c1cc(=O)[nH][nH]1`, the “% Inhibition” value is on record as 0% and the Z score is on record as -0.08.

For the molecule `NCC1CCN(C(=O)c2ccc(Oc3ccc(F)cc3F)cc2)CC1`, the “% Inhibition” value is on record as -10% and the Z score is recorded as 1.18.

For `COc1cc(NC(=O)c2ocnc2C(F)F)c(C(=O)N2CCCC2)cc1OC`, the “% Inhibition” value is -16% and the Z score is 2.84.

Turning to `O=C(NS(=O)(=O)CCC1CCCC1)C1CC1C1CC1` (centres undefined), the “% Inhibition” value was -7% and the Z score is recorded as 1.07.

Turning to `Cc1nc2ccc(C(=O)N3CCC(=O)N(C)CC3)cc2o1`, the “% Inhibition” value worked out at 16% and the Z score is -2.16.

For the molecule `CCC[C@H]1COCCN1C(=O)Nc1cc(C(=O)OC)cc(C(=O)OC)c1`, the “% Inhibition” value was 2% and the Z score is -0.24.

Consider `COCC(=O)N1CCN(c2nc3ccc(C)cc3c3nnc(C4CCCCC4)n23)CC1`, for which the “% Inhibition” value came to 3% and the Z score is -0.3.

Take `O=C(c1ccc2ccccc2c1)N1CCCN(C[C@H]2CN(C(=O)c3ccc4c(c3)OCO4)CCO2)CC1`: the “% Inhibition” value was -5% and the Z score is given as 0.6.

For `CC(C)c1nccc(CN2CC(c3cccnc3)C2)n1`, the “% Inhibition” value turned out to be 7% and the Z score is recorded as -1.28.

For `O=C(Cc1c[nH]c2ccccc12)NC1(c2ncccn2)CCOCC1`, the “% Inhibition” value is on record as -20% and the Z score stood at 3.68.

As to `Cc1cccc(-n2cnc(C(=O)NC3CCCCCC3)c2)n1`, the “% Inhibition” value is on record as -1% and the Z score is on record as 0.14.
